Assay results: PubChem BioAssay AID1745853 (National Center for Advancing Translational Sciences (NCATS), 2022)
The list shows a part of the results. These are further read-outs of the screen, such as a control signal, another cell line or another target. No call is given for them.

Tests used:
Assay in all cases: Primary Screen for Target Class Profiling of Small Molecule Inhibitors of Methyltransferases
[1] = biological target: Glycine N-methyltransferase (Homo sapiens) (UniProt Q14749); settings: purified enzyme, MTase-Glo SAH luminescence; measured here: GNMT inhibition; at 40 µM; stronger effect = lower value
How it was run: (§1)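 Each enzyme was reacted with SAM and its substrate, with compounds tested once at 40 uM; SAH formed was read by MTase-Glo luminescence.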

[2] = biological target: Guanidinoacetate N-methyltransferase (Homo sapiens) (UniProt Q14353); settings: purified enzyme, MTase-Glo SAH luminescence; measured here: GAMT inhibition; at 40 µM; stronger effect = lower value
How it was run: as §1

[3] = biological target: Histamine N-methyltransferase (Homo sapiens) (UniProt P50135); settings: purified enzyme, MTase-Glo SAH luminescence; measured here: HNMT inhibition; at 40 µM; stronger effect = lower value
How it was run: as §1

[4] = biological target: Nicotinamide N-methyltransferase (Homo sapiens) (UniProt P40261); settings: purified enzyme, MTase-Glo SAH luminescence; measured here: NNMT inhibition; at 40 µM; stronger effect = lower value
How it was run: as §1

[5] = biological target: Phenylethanolamine N-methyltransferase (Homo sapiens) (UniProt P11086); settings: purified enzyme, MTase-Glo SAH luminescence; measured here: PNMT inhibition; at 40 µM; stronger effect = lower value
How it was run: as §1
On the % scale 0 is the no-effect control and ±100 the full control effect.

SMILES | activity change, negative = inhibition [1] | activity change, negative = inhibition [2] | activity change, negative = inhibition [3] | activity change, negative = inhibition [4] | activity change, negative = inhibition [5]
Cc1ccc(Cn2c(=O)c3ccccc3n3c(=O)n(CC(=O)Nc4ccc(C)c(C)c4)nc23)cc1 | -3.16% | -1.25% | 1.12% | -6.73% | -0.552%
Cc1ccc(Cn2c(=O)c3ccccc3n3c(SCC(=O)Nc4ccccc4C)nnc23)cc1 | 4.37% | 0% | 10.3% | 10.2% | 8.54%
Cn1nc2n(c1=O)CCC(NS(=O)(=O)c1cccnc1)CC2 (stereo not given) | -0.668% | -1.03% | -0.203% | 0.112% | -10.5%
COc1ccc(CN2C(=O)c3cc4occc4n3CC2(C)C(=O)NC2CCCCCC2)cc1 (stereo not given) | -1.83% | 0% | 0.373% | -10.2% | -3.39%
CN(Cc1ccccc1)c1ncnc2c1CCN(C(=O)[C@@H](N)CO)CC2 | -7% | -6.9% | -2.59% | -10.4% | -7.67%
CC1(C(=O)NC2CCCCCC2)Cn2c(cc3occc32)C(=O)N1CCN1CCCCCC1 (stereo not given) | -1.53% | 3.31% | -7.54% | -3.43% | -2.54%
Cc1ccc(N2C(=O)c3cc4occc4n3CC2(C)C(=O)NC2CCC(C)CC2)cc1 (stereo not given) | -1.17% | 0% | 4.45% | 2.97% | 0.426%
Cc1ccc(CN2CCNCC2)cc1NC(=O)CNc1ccc(F)c(F)c1 | 1.54% | 5.02% | -0.634% | -9.39% | -8.65%
CCCn1c(=O)c2ccccc2n2c(SCc3cccc(F)c3)nnc12 | -17.1% | 1.01% | -0.232% | -13.1% | -2.36%
O=C(CCc1nnc2n(CCc3ccccc3)c(=O)c3ccccc3n12)N1CCN(c2ncccn2)CC1 | -2.64% | 2.91% | 0.136% | 2.35% | -6.02%
C=CC(C)(O)CC/C=C(\C)C(=O)OCC1OC(OC2CCC3(C)C(CCC4(C)C3CC=C3C5CC(C)(C)C(O)CC5(C(=O)O)CCC34C)C2(C)C)C(O)C(OC2OC(CO)C(O)C(OC3OC(CO)C(O)C(OC4OC(COC5OC(CO)C(O)C(O)C5O)C(O)C(O)C4O)C3O)C2O)C1O (stereo not given) | 2.28% | 6.42% | 13.3% | -6.76% | 8.38%
CCC(C)C(C(=O)O)N1Cc2c(OCC=C(C)C)c(C)c(OC)c(C(=O)O)c2C1=O (stereo not given) | 3.86% | 1.24% | 9.22% | -11.7% | -4.6%
COC[C@@H]1OCCN(S(=O)(=O)c2cc(OC)ccc2OC)[C@H]1c1ccccc1 | -1.13% | 0% | 5.38% | 0% | 3.05%
CC1(C)C[C@H](NCc2ccc(CO)o2)[C@@]2(CCC(=O)N3CCOCC3)CC[C@](C)(O)C[C@@H]12 | -2.03% | -4.19% | 1.11% | 2.09% | 0.968%
COCCN(CC1CCN(Cc2ccccc2F)CC1)C(=O)c1cc[nH]c1C | -3.63% | 1.72% | -0.904% | 2.04% | 15%
C=C1CCC2C(C)(C(=O)O)CC(O)CC2(C)C1CC/C(C)=C/C(=O)O (stereo not given) | 0% | 7.67% | 8.93% | -7.47% | 3.85%
COc1ccc2cc3n(c2c1)CC(C)(C(=O)NC1CCCC1)N(c1ccccc1C)C3=O (stereo not given) | -0.711% | 0.25% | 5.71% | -2.81% | -0.505%
CC(C)CN1C(=O)C(C)(C)[S+](=O)([O-])[C@@H]2CN(c3ccc(OC(F)(F)F)cc3)C[C@@H]21 | -0.653% | 0.197% | 1.59% | 0.802% | -7.68%
C=Cc1ccc(Cn2nc3n(CCC)c(=O)c4ccc(C(=O)NC5CCCC5)cc4n3c2=O)cc1 | -10.8% | 0.334% | -1.5% | -7.95% | -1.43%
Cc1ncccc1OC1(C(=O)N2CCCC2c2nc(C(C)C)no2)CCNCC1 (stereo not given) | -2.86% | -1.79% | 1.03% | -8.99% | -6.28%

SMILES | activity change, negative = inhibition [1] | activity change, negative = inhibition [2] | activity change, negative = inhibition [3] | activity change, negative = inhibition [4] | activity change, negative = inhibition [5]
CCCn1c(=O)c2ccc(C(=O)NC(C)C)cc2n2c(=O)n(CC(=O)Nc3ccccc3)nc12 | 3.13% | 1.67% | 2.59% | -0.232% | 0.312%
O=C(c1ccc2ccccc2n1)N1CCc2nnc(CCc3ccccc3)n2CC1 | -5.78% | -6.62% | -1.97% | -10.8% | -6.09%
Cc1ccc(C(=O)C(C)n2nc3n(C)c(=O)c4ccc(C(=O)NC5CCCC5)cc4n3c2=O)cc1C (stereo not given) | 1.75% | 0% | -4.38% | 0.315% | 0.025%
CC1(C(=O)NCc2ccc(F)cc2)Cn2cnc(C(=O)NCCN3CCOCC3)c2C(=O)N1C1CC1 (stereo not given) | 3.42% | 0% | 5.12% | 3.7% | 4.54%
COc1ccc(CNC(=O)CCn2ccc3cc(S(=O)(=O)N4CCCC4)ccc32)cc1 | -1.87% | 3.87% | 0.863% | -4.52% | -0.898%
COc1cc(OC)cc(C(=O)N2CCC(c3nc(C4CCOC4)no3)CC2)c1 (stereo not given) | -3.73% | -3.19% | -0.986% | -4.21% | -0.152%
Cc1ccc(C(=O)CSc2nnc3n(C)c(=O)c4ccc(C(=O)NC5CCCC5)cc4n23)c(C)c1 | -0.676% | 2.84% | 4.56% | -1.25% | -3.23%
CCCC(C(=O)OCCN(CC)CC)(c1ccccc1)c1ccccc1 | 2.9% | 12.8% | 4.39% | -7.39% | 9.05%
CCCn1c(=O)c2ccccc2n2c(=O)n(Cc3ccccc3F)nc12 | -0.433% | 4.23% | 6.87% | -14.2% | 1.71%
O=C(Cn1c(=O)oc2cc(S(=O)(=O)N3CCCC3)ccc21)NC1CCCc2ccccc21 (stereo not given) | 2.33% | 1.99% | 8.98% | -5.06% | -9.24%
CCc1ccc(CNC(=O)c2cc3n(n2)CC(C)(C(=O)NC2CCCCCC2)N(C)C3=O)cc1 (stereo not given) | 2.04% | 1.22% | -2.75% | 3.78% | -5.17%
COc1ccccc1CNC(=O)C1(C)Cn2c(cc3ccccc32)C(=O)N1Cc1ccc(OC(C)C)cc1 (stereo not given) | 6.98% | 0.132% | 6.41% | 4.58% | 0.284%
COc1ccc(OC)c(CNC(=O)c2ncn3c2C(=O)N(C2CC2)C(C)(C(=O)NC2CCCC2)C3)c1 (stereo not given) | -11% | -2.5% | -10.6% | -15.8% | -12.5%
COc1cc([C@@H]2Oc3c(OC)cc(CCCO)cc3[C@@H]2CO[C@@H]2O[C@H](CO)[C@@H](O)[C@H](O)[C@H]2O)ccc1O | -1.09% | 2.41% | 2.86% | -9.17% | -0.831%
COc1ccc(C)c2c1N[C@@H](c1ccc(Br)cc1)[C@H]1CC=C[C@@H]21 | -20.4% | -2.63% | -15.7% | -9.68% | -18.2%
CCCn1c(=O)c2ccc(C(=O)NC(C)CC)cc2n2c(=O)n(CC(=O)NC(C)C)nc12 (stereo not given) | -0.446% | 2.03% | 3.1% | -2.06% | -4.43%
CCOc1ccccc1CN1C(=O)c2cc3ccccc3n2CC1(C)C(=O)NCCC(C)C (stereo not given) | 0.806% | 0% | 0.752% | -1.81% | -5.44%
Clc1ccc2c(c1)C1C=CCC1C(c1cccc(Br)c1)N2 (stereo not given) | -5.31% | -0.806% | -1.35% | -8.8% | -3.16%
Cc1cccc(CN2CCc3nnc([C@@H]4C[C@@H](O)CN4C)n3CC2)c1 | -6.68% | -9.69% | -4.18% | -14% | -12.7%
CC(C)CC(N)c1nnc2n1CCNCC2 (stereo not given) | -3.57% | -7.29% | -2.46% | -10.5% | -11.3%

SMILES | activity change, negative = inhibition [1] | activity change, negative = inhibition [2] | activity change, negative = inhibition [3] | activity change, negative = inhibition [4] | activity change, negative = inhibition [5]
NC(=O)CN1CCC(c2nc(-c3cn4ccccc4n3)no2)CC1 | -1.37% | -2.95% | 0.075% | -7.44% | -3%
COc1ccc(-c2nnc3n(Cc4ccc(F)cc4)c(=O)c4ccccc4n23)cc1 | -3.31% | 0.513% | 2.36% | 1.64% | 1.81%
CC1(C(=O)NC2CCCCCCC2)Cn2c(ccc2-c2ccccc2)C(=O)N1CCC1=CCCCC1 (stereo not given) | -1.87% | 0.472% | 2.37% | -1.04% | -1.16%
COC1CCC12CCN(C(=O)c1ccc(C)s1)CC2 (stereo not given) | -3.84% | -8.89% | -1.29% | -12.5% | -12.6%
C/C=C/C=C/C=C/C(=O)OC1C=C2C(O)OC(=O)[C@]2(O)[C@@]2(C)CCCC(C)(C)[C@H]12 (stereo not given in full) | -11.3% | 1.06% | 3.07% | -13.1% | -3.89%
Fc1cccc2c1NC(c1ccc(Cl)cc1)C1CC=CC21 (stereo not given) | -7.33% | 4.68% | -1.52% | -4.81% | -3.71%
COc1cccc(NC(=O)CSc2nnc3n(C)c(=O)c4ccc(C(=O)NC5CCCC5)cc4n23)c1 | -2.78% | 0% | 7.86% | 7.68% | 6.02%
COc1cccc(-c2ccc3c(n2)CNC(=O)CO3)c1 | -11.2% | -6.66% | -7.09% | -13.5% | -8.89%
COc1cc(CC(=O)O)ccc1O | -12.2% | -0.107% | -2.99% | -10.5% | 0.838%
Cc1ccc(NS(=O)(=O)c2cc3[nH]c(=O)[nH]c3cc2C)c(C)c1 | -5.55% | 0.956% | -1.17% | -7.78% | -14.2%
Cc1cc(Cl)ccc1N1C(=O)c2cc(C(C)(C)C)nn2CC1(C)C(=O)NCc1ccccc1 (stereo not given) | 7.55% | 0.03% | 7.91% | 8.77% | 2.64%
O=c1[nH]c2cc(Cl)ccc2c(O)c1-c1ccc(Oc2ccccc2)cc1 | -6.39% | 12.6% | 5.3% | -17.4% | 1.16%
COc1cccc(S(=O)(=O)N2CC(Oc3ccccc3-c3noc(C)n3)C2)c1 | -4.81% | -1.78% | -0.534% | -7.29% | -3.43%
CC1(C(=O)NC2CCCCC2)Cn2c(ccc2-c2ccco2)C(=O)N1CCc1cccs1 (stereo not given) | -4.57% | 4.45% | 2.72% | -2.38% | -4.82%
CCOC(=O)COc1ccc2c(-c3ccccc3)cc(=O)oc2c1 | -7.94% | 3.62% | -0.397% | -10.8% | -26.4%
Cc1nn(C)c(C)c1S(=O)(=O)N1CCC2(CC1)CC(N(C)Cc1ccccc1)CCO2 (stereo not given) | -5.28% | -7.61% | -4.03% | -14.5% | -5.97%
COc1ccc(CNC(=O)C(C)n2ccc3cc(S(=O)(=O)N4CCCCC4)ccc32)cc1OC (stereo not given) | -13.7% | 0.087% | 2.25% | -4.3% | -2.08%
CCCN1C(=O)c2c(C(=O)NCCc3ccc(C)cc3)ncn2CC1(C)C(=O)NCc1ccc(C)cc1 (stereo not given) | -0.739% | 0% | 6.92% | 5.52% | 8.59%
O=C(CCn1cncn1)N1CCC(c2nccn2Cc2cccnc2)CC1 | -1.85% | -1.92% | 2.76% | -0.198% | -8.01%
